Assay results from the RNAGym collection of RNA variant scans (doi:10.7554/elife.90254).
The source gives no read counts; variants with many changes may rest on few reads.

B1: LINE1-mini (parent)
chain: GGCAGAGCUCAACACAGCGUGGCAAAGUGGCUGUGGCUAGACUGCC

Variants of: B1
Assay: self-cleavage, relative activity (ratio to wild type); higher = more cleavage; in vitro, sequencing; the parent is a self-cleaving ribozyme

| Variant | self-cleavage |
| --- | --- |
| UGCAAAGCUCAUCACAGCGUGGCAAAGUGGCUGUGGCUAGACUGCC | 0.41 |
| UGCAGAGCUGAACACAGCGUGGCUAAGUGGCUGGGGCUAGAGUGCC | 0 |
| UGCAGAACUCAAAACAGCGUGGCAAAGUGGCUGUGGCUAGACUGCC | 0.08 |
| UGCAGAGCUCAACACAGGGUGGCAAAGUGGCUGUGGCUAGACUGCU | 0.7 |
| UGCAGAGCUCAACAUAGCGUCGUAAAGUGGCUGUGGCUAGACUGCA | 0.6 |
| UGCAGAGCUUAACCCAGCGUGGCAAAGUUGUUGUGGCUAGACUGCC | 0.02 |
| UGCAGAGGUCAACACAGCGUGGCAAAGUCGCUGUGUCUAGACUGCC | 0.01 |
| UGCAGAGCUAAACACAGCGUGCCAAAGUGGCUGUGGCUAGAGUGCC | 0 |
| UGCAGAGCUCAACAUAACGUGUCAAAGUGGCUGUGGCUAGACUCCC | 0.11 |
| UGCAGAGCUCAACACAGCGUGGUAUAGUGGCUGUGGCUACACUGCC | 0.05 |
| UGCAGAGCUCAACACAGUGUGGCAAAGUGGCUGUGGCUAGACUGGC | 0.18 |
| UGCAGAGCUCAACAUAGGGUGGGAAAGUGGCUGAGGCUAGACCGCC | 0.01 |
| UUCAGAGCUCAACCCAGCGUGGCAAAGUGGCUGCGGCUAGACUGCC | 0.01 |
| UCCAGAGCUCAACACGUCGUGGGAAAGUGGCUGUGGCUAGACUACC | 0.01 |
| UGCAGAACUCAACACAGCGUGUCAAAGUGGUUGUGGCUAGACUGCC | 0.09 |
| UCCAGAGCUCAGCACCGAGUGGCAAAGUGACUGUUGCUAGACUGCC | 0.02 |
| UGCAGAGCUGAACACAGCGUGGCAGAGUGGCUGUGGCUAGACUGAU | 0.01 |
| UGCAGAACUCAGCACAGCGUGGCAAAGUGCCUGUGGCGAAACUGCC | 0.03 |
| UGCAGAGCUCAACACAUCGUGUCAAAGUAGCUGUGGCUAGACUGCU | 0.09 |
| UGCAGAGUUCACCACAGCGUGGCAAAGUGGCUGUGACUAGACUGCC | 0.05 |
| UGCAGAGCUCAAUACAGCGUGGCACAAUGGCUGUGGCUAGACUGCC | 0.02 |
| UGCAGAGCUCAACAAAGCGUGGCAAACUGGCUGUGGCUAAACUGCC | 0.01 |
| UACAGAGCUCAACUCAGCGUGGCAAAGUGGCUGUGGCUUGACUGCC | 0.07 |

| Variant | self-cleavage |
| --- | --- |
| UGCAGAAAUCAACACCGCGUGGCAAAGUGGCUGUGGCUAGACUGCC | 0.06 |
| UACAGAGCUCGACAAAGCGUGGCAAAGUGGCUGUGGCUAGACUGCC | 0.01 |
| UGCAGAGCUCAACAAAGCGUGGCAAAGUGGCUGAGGCUAGACUGCC | 0.07 |
| UUCAGCCCUCAACACAGAGUGGCAAAGCGGCUGUGGCUAGAUUGCC | 0 |
| UUCAGAGCUCAACAAAGCGUGGCAAAGUGGCUGUGGCUAGACUGCC | 0.01 |
| UGCAGAGCUCAACACACCGUGGCCAAGUGCUUGUGGCUAGACUGCC | 0.09 |
| UGCAGAGAGCAAUACAACGUGGCAAAGUGGCUGUGGCUAUACUGCC | 0.06 |
| UGCAGAGUUCAACACAGCGUGGCAAAGUUGGUGUGGCUAGACUGCC | 0.06 |
| UGCAGAGCUAAACACAGCGUGGCAAAGUGGCUGUUGCUAGACUGCC | 0 |
| UGCAGAGCUAAACACAGCGUGGCAAAGUGGAUGUGGCUAGAUUGCC | 0.01 |
| UGCAGAGCUCAACAUAGCGUGGCAAAGUGUCUGUGGCUAGACUGCC | 0.05 |
| UCCAGAGCUCAACACAUCGUCGCAAAGUGGCCGUGGCUAGACUGAC | 0.01 |
| UGCAGAGCUUAACACAGGGUGGCAAAGUGGCUGUGGCUAGACUGCC | 0.02 |
| UGCAGAGGUAAACACAGCGUGGCAAAGAGGCUGUGGCUAGACUGCC | 0.01 |
| UGCAGACCUCAACCCAGCGUUGCAAAGUGGCUGUGGCUAGACUGCC | 0.05 |
| UGCACAGCUCAACACAGCGUGGCAAAGUCGCUGUGGCUAGACUGCC | 0.03 |
| UCCAGAGCUCAACACAGCGUUGCAAAGUGGCCUUGGCCAGACUGCC | 0 |
| UGCAGAGGUCAAUACAGCGUGGCAAAGUGGCUGUGGCCAGACUGCC | 0.02 |
| UGCAGAGCUAAACACAGCGUGGCAAAGUGGCUGUGGCUCGACUGCC | 0.01 |
| UGCAGAGGUCAACACAGCGUGGCAAAGUGGCUGUGGCUAUACUGCC | 0.02 |
| UGCAGAGCUCAACACAGCCUGGCAACGUGGCUCUGGCUAGACUGCC | 0.03 |
| UCCAGAGCUCACCACAGCGUGGCAAAGUGGCUUUGGCUAGACUGCC | 0.02 |
| UGCAGACCUCAACCCCGCUUGACAAAGUGGCUGUGGCUAGACUGGC | 0.05 |

| Variant | self-cleavage |
| --- | --- |
| UGCAGAGCUAAACAAAGGGUGGCAAAGUGGCUGUGGCUAGACUGCC | 0 |
| UGCAAACCUCAUCGCAGGGUGGCAAAGUGGCUGUGGCUAGACUGCC | 0.03 |
| UGCAGAUCUCAACACAGCGUGACAAAGUAGCUGUGGCUAGACUGCC | 0.02 |
| UGCAAAGCUCAACACAGCGGGGCAAAGUGGCUGUGGCUAGACUGCC | 0.03 |
| UGCAGAGCUCAACAAAGCGUAGCAAAGUGGCUGUGGCUAGACUGCC | 0.01 |
| UGCAGAGUUCAAAAGAGCGUGGCAAAGUGGUUGUUGCUAGACUGCC | 0.14 |
| UGCAGAGCUCAACAGAGUGUGGUAAAGUGGCUCUGGCUAGACUGCG | 0.42 |
| UGCAGAGCUCAAUACAGCGUGGCAAAGUAGCUGUGUCUAGACUGCC | 0.04 |
| UGCAGAGCUCAACACAGUGUGACAAAGUGGCUGUGGCUAGCCUGCA | 0.03 |
| UGCAGAGCUCAAUACAGCGUGGCAAAGUUGCUGAGGCUAGACUGCC | 0.09 |
| UGCAGAGCUCAACACAGUGUGUCAAGGUGGCUGUGGCUAGACUGCC | 0.34 |
| UGCACAGCUCAACAUAGCGUGUCAAAGUGGCUGUGGCUAGACUGCU | 0.01 |
| UACAGAGCUCAACAUAGCGUGGCAAAGUGGCUGUGGCUAGACUCCC | 0.1 |
| UGCAGAGAUCAACACAGCGUGGCAAAGUGGCUGUGGUUAGACUGCC | 0.02 |
| UGCAGAUCUCUACGCAGCGUGGCAAAGUGGCGGUGGCUAGACUGCC | 0.02 |
| UGCACCGCUCAACACAGCAUGGCAAACUGGUUGUGGCUAGACUACC | 0.13 |
| UUGUGAGCUCAACCCAGCAUGGCAAAGUGGCUGGGGCUAGACUGCC | 0.08 |
| UCCAGAGCUCAACACAACCUGGCAAAGUGGCUGUGGCUAGACUGCC | 0.05 |
| UGCAUCGCUCAACUCAGCGUGGCAAAGUGGCGGUGGCUAGACUGCC | 0.03 |
| UGCAGAGCUUAACAUAGCGUGGCAAAGUGGCUGUGGCUAAAAUGCC | 0.01 |
| UGCAGAGCUAAACACAUCGUGUCAAAGUGGGUGUGGCUAGACUGCC | 0.02 |
| UGCAUAGCUCAACACGGCGUGGUAAAGUGGGUGUGGCAAGACUGCC | 0.01 |
| UGCAGAGGUCAACACAGAGUGGCAAAGUGCCUGUUCCUAGACUGCG | 0.01 |

| Variant | self-cleavage |
| --- | --- |
| UUCAGAGCUUAACACAGCGUGGCAAAGUGUCUGUGGCUAUACUGCC | 0.01 |
| UGCAGAGCUAAACACAGCGUGGCAAAGCGGCUGUGGCUAGACUGCC | 0 |
| UGCAGACCUCAACGCAGCGUGGCAAAGUGGCUGUGGCUGGACCGCC | 0.03 |
| UCCAGAGCUCAACACAGCCUGGCAAAGUGGCUGUGGCUAGACAGCC | 0.01 |
| UGCAGAGCUCAACAAAGCGUGGAAAAGUGGCUGUGGAUAGACUGCC | 0.06 |
| UGCAGAGCUAAACACAGCGUGUCAAAGUGGCUGUGGCUAGACUGCC | 0.06 |
| UGCAGAGGCCAACACAGGGUGGCUAGGUUGCUGUGGCUAGACUGCC | 0.01 |
| UGCAGAGCUCAACACAGAGUCGCAAAGUGGCUGUGGCUAGACUGCC | 0.04 |
| UGCAGAGCUCAACACACCGUGGCAAAGUGGCUUUGGCUAGACUGCC | 0.03 |
| UGCAGAGCUUAACACAGCGUGGCAAAGUGGCUUUGUCUUGACUGCC | 0.02 |
| UACAGAGCUCGACACAGCGUGAAUAAGUGGCAGUGGCUAAACUGCC | 0.01 |
| UGCAGAGCUAAACACAGCGUGGCAAAGUGGCUGUGGCUAGACUGCA | 0.06 |
| UGCAGAGGUCAACAAAGCGUGGCAAGGUGGCUGUGGCUAGACUGCC | 0.06 |
| UUCAGAGGUUAACACAGCGUGGCAAAGGUGCUGUGGCCAGACCGCC | 0 |
| UGCAGAGCUCAAAACAGUGUGGCAAUGUGGCUGUGGCUAGAUUGCC | 0.27 |
| UCCAGAGGUCAAAACACCGUAGCAUAGUGGCUGUGGCUAGACUGCC | 0.04 |
| UACAGAGCUCAACACAGUGUGGCAAAGUGGAUGUGGGUAGACUGCC | 0.1 |
| UGCAGAGCUCAACACAACGCGGCAAAGUGGCUGUGGCUAGACUGUC | 0.29 |
| UACAGAGCUCAACACAGCGUGGCAAAGUGGCUGUGGCAAGACUGCC | 0.15 |
| UGCAGAGCUCAACACAGCGUGGCAAAGUGGCUGUGGUUGGACUGCA | 0.02 |
| UGCAGAGCUCAACACAUCAUUGCAAAGUGGCUGUGGCUAGACUGCC | 0.53 |
| UGCAAAGAUCAACACAGCGUGGCAAAGUGGCUGUGGCUAGAAUGCC | 0.16 |
| UGCAGAGUUCAACACAGCGUGGCAAACUGGCUGUGGCUAGACUGCC | 0.01 |

| Variant | self-cleavage |
| --- | --- |
| UGCAGAGCUCAACACAGCGUGGUAAAGUGGCUGUGGCUAGUCUGCC | 0.82 |
| UGCAGAGCUCAACAUAGCGUGGCAAAGUGGCCGUGGCUAGACUGCC | 0.08 |
| UGCAGAGCUGAACAUCGCGUGGCUAAGUGUCUGUGGGUGGACUGCC | 0.02 |
| UGCAGAGCUAAACACAGCGUUUCACAGUGGCUGUGGCAAGACUGCC | 0.04 |
| UGCAGAGCUCAACACAGCCUGGCACAGUUGCUGUGGCUAGACUGUC | 0.09 |
| UUCAGAGAUCAGCACAGCGUGGCAAAGUGGCUGAGGCUAGACUGCC | 0 |
| UGCAUCUCUAAACACAGCGUGGCAAAGUGGCUGGGGCUAGACUGCC | 0.02 |
| UGCAGAGCUGAACACAGCGUUGCACAGUGGCUGUGGCUAGACUGCC | 0.03 |
| UGCAGAGCUCAACACAGUCUGGCAAAGUAGCUGUGGCUAGACUGCC | 0.63 |
| UGCAGACCUCAAUACAGCGUGGCAAAGUGGCUGUGGCUAGACUGCC | 0.07 |
| UGCAGAGCUCAAAACAGCGUGGCGAAGUGGCUGUGGCUAGACUGCA | 0.04 |
| UGCACAGCUCAACACAGCGUCGCAAAUUGGCUGUGGCUAGACUGCC | 0.02 |
| UCCAGAACUCAACACAGGCUGGCAACGUGGCUGUGGCUAGAUCGCC | 0.14 |
| UGCAGAGCUCAACACAGCGUGGAAAAGUGGCUGUGGCAAGACUGCC | 0.06 |
| UGCAGAGCUCAACACAGCGUGGUAAAGUGGCUGUGGCGAGACUGCC | 0.02 |
| UGCAGAGCUCAACACAGCGUGGUAAAGUGGCUGUGGCCAGACUGCC | 1.32 |
| UCCAGAGCUCAACACAGCGAGGCAAAGUGGCUGUGGCUAGUCUGCC | 0.05 |
| UGCAGAGGUCAACACAGCGUGGCAAAGUGGCUGUGGCUAGACCGUC | 0 |
| UGCAGAGCUCAACACAGCGUGGAAAAGUGGCUGUGGUUAGACUGCC | 0.04 |
| UGCAGAGUUCAACACAGCGUGGCAAAGUGGCUGUGGCUAUACUGCC | 0.04 |
